The list shows a part of the results.
Assays:
Test in all cases: glycan array binding signal (z-score within array); higher = stronger binding
Conditions in all cases: glycan notation: IUPAC condensed, linker removed
[1] = molecular target: Neu5Ac(a2-3)Gal(b1-4)GlcNAc(b1-6)[Gal(b1-3)]GalNAc
Outline: (§1)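 From the Consortium for Functional Glycomics database, 3228 arrays were curated, keeping only those whose protein sequence was available. Binding is given as a within-array Z-score averaged across arrays sharing a protein sequence and across linkers. Negative Z-scores can be read as non-binding.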

[2] = molecular target: Neu5Ac(a2-3)Gal(b1-4)GlcNAc(b1-6)[Neu5Ac(a2-3)Gal(b1-3)]GalNAc
Outline: as §1

[3] = molecular target: Neu5Ac(a2-3)Gal(b1-4)GlcNAc6S
Outline: as §1

[4] = molecular target: Neu5Ac(a2-3)Gal(b1-4)[Fuc(a1-3)]GlcNAc
Outline: as §1

[5] = molecular target: Neu5Ac(a2-3)Gal(b1-4)[Fuc(a1-3)]GlcNAc(b1-2)Man
Outline: as §1

[6] = molecular target: Neu5Ac(a2-3)Gal(b1-4)[Fuc(a1-3)]GlcNAc(b1-3)Gal
Outline: as §1

[7] = molecular target: Neu5Ac(a2-3)Gal(b1-4)[Fuc(a1-3)]GlcNAc(b1-3)Gal(b1-4)GlcNAc
Outline: as §1

[8] = molecular target: Neu5Ac(a2-3)Gal(b1-4)[Fuc(a1-3)]GlcNAc(b1-3)Gal(b1-4)[Fuc(a1-3)]GlcNAc(b1-3)Gal(b1-4)[Fuc(a1-3)]GlcNAc
Outline: as §1

[9] = molecular target: Neu5Ac(a2-3)Gal(b1-4)[Fuc(a1-3)]GlcNAc(b1-3)GalNAc
Outline: as §1

[10] = molecular target: Neu5Ac(a2-3)Gal(b1-4)[Fuc(a1-3)]GlcNAc(b1-6)[Gal(b1-3)]GalNAc
Outline: as §1

[11] = molecular target: Neu5Ac(a2-3)Gal(b1-4)[Fuc(a1-3)]GlcNAc(b1-6)[Neu5Ac(a2-3)Gal(b1-3)]GalNAc
Outline: as §1

[12] = molecular target: Neu5Ac(a2-3)Gal(b1-4)[Fuc(a1-3)]GlcNAc6S
Outline: as §1

[13] = molecular target: Neu5Ac(a2-3)Gal6S(b1-4)GlcNAc
Outline: as §1

[14] = molecular target: Neu5Ac(a2-3)Gal6S(b1-4)[Fuc(a1-3)]GlcNAc
Outline: as §1

Neu5Ac(a2-3)GalNAc = molecular target: Neu5Ac(a2-3)GalNAc
Outline: as §1

[15] = molecular target: Neu5Ac(a2-3)GalNAc(b1-4)GlcNAc
Outline: as §1

[16] = molecular target: Neu5Ac(a2-3)[GalNAc(b1-4)]Gal(b1-4)Glc
Outline: as §1

[17] = molecular target: Neu5Ac(a2-3)[GalNAc(b1-4)]Gal(b1-4)GlcNAc
Outline: as §1

[18] = molecular target: Neu5Ac(a2-3)[GalNAc(b1-4)]Gal(b1-4)GlcNAc(b1-3)GalNAc
Outline: as §1

[19] = molecular target: Neu5Ac(a2-3)[Neu5Ac(a2-6)]GalNAc
Outline: as §1

Neu5Ac(a2-6)Gal = molecular target: Neu5Ac(a2-6)Gal
Outline: as §1

[20] = molecular target: Neu5Ac(a2-6)Gal(b1-3)GlcNAc(b1-3)[Gal(b1-4)GlcNAc(b1-6)]Gal(b1-4)Glc
Outline: as §1

Neu5Ac(a2-6)Gal(b1-4)Glc = molecular target: Neu5Ac(a2-6)Gal(b1-4)Glc
Outline: as §1

[21] = molecular target: Neu5Ac(a2-6)Gal(b1-4)GlcNAc
Outline: as §1

[22] = molecular target: Neu5Ac(a2-6)Gal(b1-4)GlcNAc(b1-2)Man
Outline: as §1

[23] = molecular target: Neu5Ac(a2-6)Gal(b1-4)GlcNAc(b1-2)Man(a1-3)Man(b1-4)GlcNAc(b1-4)GlcNAc
Outline: as §1

[24] = molecular target: Neu5Ac(a2-6)Gal(b1-4)GlcNAc(b1-2)Man(a1-3)[Gal(b1-4)GlcNAc(b1-2)Man(a1-6)]Man(b1-4)GlcNAc(b1-4)GlcNAc
Outline: as §1

[25] = molecular target: Neu5Ac(a2-6)Gal(b1-4)GlcNAc(b1-2)Man(a1-3)[GlcNAc(b1-2)Man(a1-6)]Man(b1-4)GlcNAc(b1-4)GlcNAc
Outline: as §1

[26] = molecular target: Neu5Ac(a2-6)Gal(b1-4)GlcNAc(b1-2)Man(a1-3)[GlcNAc(b1-4)][Neu5Ac(a2-6)Gal(b1-4)GlcNAc(b1-2)Man(a1-6)]Man(b1-4)GlcNAc(b1-4)GlcNAc
Outline: as §1

[27] = molecular target: Neu5Ac(a2-6)Gal(b1-4)GlcNAc(b1-2)Man(a1-3)[Man(a1-6)]Man(b1-4)GlcNAc(b1-4)GlcNAc
Outline: as §1

[28] = molecular target: Neu5Ac(a2-6)Gal(b1-4)GlcNAc(b1-2)Man(a1-3)[Neu5Ac(a2-3)Gal(b1-4)GlcNAc(b1-2)Man(a1-6)]Man(b1-4)GlcNAc(b1-4)GlcNAc
Outline: as §1

[29] = molecular target: Neu5Ac(a2-6)Gal(b1-4)GlcNAc(b1-2)Man(a1-3)[Neu5Ac(a2-6)Gal(b1-4)GlcNAc(b1-2)Man(a1-6)]Man(b1-4)GlcNAc(b1-4)GlcNAc
Outline: as §1

[30] = molecular target: Neu5Ac(a2-6)Gal(b1-4)GlcNAc(b1-2)Man(a1-3)[Neu5Ac(a2-6)Gal(b1-4)GlcNAc(b1-2)Man(a1-6)]Man(b1-4)GlcNAc(b1-4)[Fuc(a1-6)]GlcNAc
Outline: as §1

[31] = molecular target: Neu5Ac(a2-6)Gal(b1-4)GlcNAc(b1-2)Man(a1-6)Man(b1-4)GlcNAc(b1-4)GlcNAc
Outline: as §1

[32] = molecular target: Neu5Ac(a2-6)Gal(b1-4)GlcNAc(b1-2)Man(a1-6)[Gal(b1-4)GlcNAc(b1-2)Man(a1-3)]Man(b1-4)GlcNAc(b1-4)GlcNAc
Outline: as §1

[33] = molecular target: Neu5Ac(a2-6)Gal(b1-4)GlcNAc(b1-2)Man(a1-6)[GlcNAc(b1-2)Man(a1-3)]Man(b1-4)GlcNAc(b1-4)GlcNAc
Outline: as §1

[34] = molecular target: Neu5Ac(a2-6)Gal(b1-4)GlcNAc(b1-2)Man(a1-6)[Man(a1-3)]Man(b1-4)GlcNAc(b1-4)GlcNAc
Outline: as §1

[35] = molecular target: Neu5Ac(a2-6)Gal(b1-4)GlcNAc(b1-2)[Neu5Ac(a2-6)Gal(b1-4)GlcNAc(b1-4)]Man(a1-3)[GlcNAc(b1-4)][Neu5Ac(a2-6)Gal(b1-4)GlcNAc(b1-2)[Neu5Ac(a2-6)Gal(b1-4)GlcNAc(b1-6)]Man(a1-6)]Man(b1-4)GlcNAc(b1-4)GlcNAc
Outline: as §1

[36] = molecular target: Neu5Ac(a2-6)Gal(b1-4)GlcNAc(b1-2)[Neu5Ac(a2-6)Gal(b1-4)GlcNAc(b1-4)]Man(a1-3)[GlcNAc(b1-4)][Neu5Ac(a2-6)Gal(b1-4)GlcNAc(b1-4)Man(a1-6)]Man(b1-4)GlcNAc(b1-4)GlcNAc
Outline: as §1

[37] = molecular target: Neu5Ac(a2-6)Gal(b1-4)GlcNAc(b1-2)[Neu5Ac(a2-6)Gal(b1-4)GlcNAc(b1-6)]Man(a1-6)[Neu5Ac(a2-6)Gal(b1-4)GlcNAc(b1-2)Man(a1-3)][GlcNAc(b1-4)]Man(b1-4)GlcNAc(b1-4)GlcNAc
Outline: as §1

[38] = molecular target: Neu5Ac(a2-6)Gal(b1-4)GlcNAc(b1-3)Gal(b1-3)GlcNAc
Outline: as §1

[39] = molecular target: Neu5Ac(a2-6)Gal(b1-4)GlcNAc(b1-3)Gal(b1-4)GlcNAc
Outline: as §1

[40] = molecular target: Neu5Ac(a2-6)Gal(b1-4)GlcNAc(b1-3)Gal(b1-4)GlcNAc(b1-2)Man(a1-3)[Neu5Ac(a2-6)Gal(b1-4)GlcNAc(b1-3)Gal(b1-4)GlcNAc(b1-2)Man(a1-6)]GalNAc
Outline: as §1

[41] = molecular target: Neu5Ac(a2-6)Gal(b1-4)GlcNAc(b1-3)Gal(b1-4)GlcNAc(b1-3)Gal(b1-4)GlcNAc
Outline: as §1

[42] = molecular target: Neu5Ac(a2-6)Gal(b1-4)GlcNAc(b1-3)Gal(b1-4)GlcNAc(b1-3)Gal(b1-4)GlcNAc(b1-2)Man(a1-3)[Neu5Ac(a2-6)Gal(b1-4)GlcNAc(b1-3)Gal(b1-4)GlcNAc(b1-3)Gal(b1-4)GlcNAc(b1-2)Man(a1-6)]GalNAc
Outline: as §1

B1: F17-L (Escherichia coli) (protein)
chain: GPDDYVPSQIAVNTSTLPGVVIGPADAHTYPRVIGELAGTSNQYVFNGGAIALMRGKFTPALPKIGSITYTFHQGNSRDSSDFDIYDIGVSGLGIIIGMAGYWPATPLVPINSSGIYIDPVGANTNPNTYNGATASFGARLFVAFVATGRLPNGYITIPTRQLGTILLEAKRTSLNNKGLTAPVMLNGGRIQVQSQTHHHHHH
- glycan array binding signal (z-score) [1]: -0.084
- glycan array binding signal (z-score) [2]: -0.034
- glycan array binding signal (z-score) [3]: -0.018
- glycan array binding signal (z-score) [4]: -0.109
- glycan array binding signal (z-score) [5]: -0.12
- glycan array binding signal (z-score) [6]: -0.181
- glycan array binding signal (z-score) [7]: -0.046
- glycan array binding signal (z-score) [8]: -0.119
- glycan array binding signal (z-score) [9]: -0.028
- glycan array binding signal (z-score) [10]: -0.165
- glycan array binding signal (z-score) [11]: -0.152
- glycan array binding signal (z-score) [12]: -0.124
- glycan array binding signal (z-score) [13]: -0.06
- glycan array binding signal (z-score) [14]: -0.031
- glycan array binding signal (z-score) (Neu5Ac(a2-3)GalNAc): 0.19
- glycan array binding signal (z-score) [15]: 0.087
- glycan array binding signal (z-score) [16]: -0.098
- glycan array binding signal (z-score) [17]: -0.098
- glycan array binding signal (z-score) [18]: -0.095
- glycan array binding signal (z-score) [19]: -0.055
- glycan array binding signal (z-score) (Neu5Ac(a2-6)Gal): -0.103
- glycan array binding signal (z-score) [20]: -0.133
- glycan array binding signal (z-score) (Neu5Ac(a2-6)Gal(b1-4)Glc): 0.015
- glycan array binding signal (z-score) [21]: -0.165
- glycan array binding signal (z-score) [22]: -0.134
- glycan array binding signal (z-score) [23]: -0.107
- glycan array binding signal (z-score) [24]: -0.142
- glycan array binding signal (z-score) [25]: -0.117
- glycan array binding signal (z-score) [26]: -0.129
- glycan array binding signal (z-score) [27]: -0.093
- glycan array binding signal (z-score) [28]: -0.128
- glycan array binding signal (z-score) [29]: -0.129
- glycan array binding signal (z-score) [30]: -0.145
- glycan array binding signal (z-score) [31]: -0.121
- glycan array binding signal (z-score) [32]: -0.069
- glycan array binding signal (z-score) [33]: -0.204
- glycan array binding signal (z-score) [34]: -0.171
- glycan array binding signal (z-score) [35]: -0.158
- glycan array binding signal (z-score) [36]: -0.063
- glycan array binding signal (z-score) [37]: -0.072
- glycan array binding signal (z-score) [38]: -0.103
- glycan array binding signal (z-score) [39]: -0.069
- glycan array binding signal (z-score) [40]: -0.091
- glycan array binding signal (z-score) [41]: -0.186
- glycan array binding signal (z-score) [42]: 0.087

— the supplement of paper PMC8728848
